# Test results published in the supplement of paper PMC3334620.
# Over roughly 33,000 sequences, “E-score (-0.5 to 0.5)” has its median near -0.01; the highest 2% begin near 0.26. The list shows a part of the results.
# Biological target: Ste12 (UniProt P13574)
# Assay: PBM E-score (8-mer binding enrichment) (E-score (-0.5 to 0.5)); higher = stronger / more preferred TF binding; most listed sequences are background and not binding sites
# Settings: protein concentration: 200 nM; construct: GST-DNA-binding domain
# In short: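 The E-score, a modified Wilcoxon-Mann-Whitney statistic, was computed by the Universal PBM Analysis Suite for every ungapped eight-base word pooled with its reverse complement. Scans behind it were normalised with masliner after bound GST-tagged yeast transcription factors were detected with fluorescent anti-GST. The proteins, at about 100-200 nM, had been applied to universal all-10-mer Agilent arrays made double-stranded by primer extension.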
row,Sequence,PBM E-score
1,AATAGATG,0.0897
2,CGTGCTGC,-0.0856
3,AACTGATA,0.14
4,CTGCAACC,0.0045
5,CATTTGAA,0.226
6,CTCTCCGC,-0.0466
7,GTACTTTA,0.0246
8,CCCAGCCG,-0.0277
9,CACTGTCC,-0.148
10,TAGTGAAA,0.324
11,CGTACTAG,-0.289
12,GGACCTTA,-0.12
13,CCCTAGGC,-0.136
14,AAACTCTG,0.0406
15,CGGGCACC,-0.126
16,AAAAGTTC,0.0553
17,ATTTTCTA,0.221
18,GGTACCAA,-0.0343
19,ATGACCGA,-0.0095
20,CTACCCGA,-0.044
21,AGAGGCGG,0.0263
22,CACGCAAA,0.195
23,AATTTCCA,0.0904
24,GGTAGGCA,-0.193
25,CAGCTTAC,0.0225

row,Sequence,PBM E-score
1,AAGTCCAA,-0.127
2,ATCGTACC,-0.102
3,AGCTGCTC,-0.174
4,AAAGGTGC,0.0479
5,GGGACTAA,-0.216
6,GCACGGAA,-0.0629
7,GCGCATCA,0.121
8,CGAGTTGA,0.113
9,AAAAGGGC,-0.0012
10,AGGTAGAA,0.0137
11,ACTTTCTA,-0.0682
12,GAAACAAC,0.334
13,CGAGCTGC,0.0998
14,TAAGACCA,-0.00351
15,ACATACGG,-0.133
16,CTCCACCA,0.00862
17,GGTCTAAA,0.077
18,GGACCAGA,-0.091
19,GGAGGACA,-0.106
20,ATGCTTCA,0.00041
21,AATGGCAT,0.152
22,AATACTGA,0.131
23,AACGACCA,-0.0479
24,GGGGGCTA,-0.209
25,AGAACTGG,-0.0181

row,Sequence,PBM E-score
1,CGTCGGAC,-0.0707
2,AAGCGACC,-0.00892
3,TACAGGGA,-0.185
4,GAGGATGA,-0.00618
5,AGACCATC,-0.0699
6,CAGGTCTA,-0.0792
7,AACCATTA,0.17
8,AGGAGCTC,-0.00475
9,CCGGTCTA,-0.191
10,CTACGACC,-0.133
11,AGCTCCGG,0.063
12,CACTCCTC,0.12
13,CAGTGTAA,0.194
14,GGCACAAA,0.0876
15,GACAAAGA,0.0123
16,CACGAGCG,-0.0794
17,GGACCCAC,-0.162
18,CTAGACCA,-0.044
19,CTGGTCAA,0.111
20,ATTTAGAA,-0.00027
21,CCGTACCG,-0.214
22,CGGCCTGA,-0.152
23,AAGCGGCC,-0.152
24,ATACACCG,-0.0613
25,ATATTATA,0.18

row,Sequence,PBM E-score
1,ACGGAAGA,-0.0013
2,CTTGGAGA,-0.0648
3,CCTAATCG,0.0143
4,CTTTTGAA,0.0752
5,CGCGAAAA,0.212
6,ACTAACAC,0.0112
7,AGTTAAGC,-0.00263
8,CTAATGAA,0.247
9,AAAGATAG,-0.0536
10,AACGCATC,-0.0761
11,AAGTCTCA,-0.0462
12,AGAAATCG,0.0545
13,GACTCATA,-0.274
14,CGGCGCTC,0.0768
15,TCGCGTAA,0.16
16,CTGATACC,0.0308
17,GTCCAGCA,-0.189
18,AGTCTCGA,0.133
19,CTTCTCCC,-0.203
20,CGGTGCTC,-0.00907
21,AACGGAAA,0.259
22,CAGGCCCG,-0.0673
23,ACATACTG,0.0511
24,CACTCACG,0.0402
25,ATAATACG,0.0652

row,Sequence,PBM E-score
1,CGATCTTC,-0.0861
2,AACTACGG,-0.174
3,AACGCTCT,-0.187
4,AGGAGGTC,-0.152
5,CAGCCCAG,-0.136
6,CCCCGTTA,-0.00038
7,AAATTTGA,0.123
8,CTTACAAG,-0.0736
9,ACATACCT,-0.0117
10,GCGATTCC,-0.0698
11,GTACTGAC,-0.158
12,GAGACTAA,0.00829
13,CTAGTCAG,-0.209
14,GCCGCGGA,0.0303
15,CGGGCAGC,-0.133
16,CACCCGCG,0.207
17,AGCCGTTA,-0.0092
18,GCGGGTCA,0.0587
19,TATAGGGA,-0.0469
20,CGGATCCG,-0.127
21,GGCCCTAA,-0.0672
22,CAGAGTCA,-0.136
23,TATTCCCA,-0.00817
24,AGATGGTC,-0.116
25,ACTTACAA,0.189

row,Sequence,PBM E-score
1,AAGAGTAA,0.119
2,ATTCCTCG,0.12
3,AACCGTAT,-0.149
4,CAACACCG,-0.103
5,CTATAGTC,-0.0381
6,CTTACTCC,-0.0224
7,ATGGGTAA,-0.12
8,GTGGCAAC,-0.143
9,ACTCCCCA,-0.0647
10,AGTGTCTA,-0.191
11,CCGCCCCA,0.417
12,CGTAATCA,0.0585
13,AGAAAGCG,0.0749
14,ACTTCGGA,0.0657
15,CCCTATGC,-0.094
16,CCTAAGGA,-0.124
17,AGGCGACT,-0.275
18,AGCCCGCA,-0.114
19,ACCTGAGA,0.167
20,CCCTCTAC,-0.186
21,AATGATTC,0.044
22,AAATGCCG,0.138
23,CCGAACCA,0.143
24,TCGGAGCA,-0.149
25,AAAAGGAC,0.104

row,Sequence,PBM E-score
1,AACCACTG,-0.0131
2,ACCGACCC,-0.0546
3,GAGCCCGA,0.0856
4,ACCGCAGT,-0.0555
5,GAGTATTA,0.0882
6,AATAGCGG,0.00052
7,CCTTCGTC,-0.092
8,CTCCGCCC,0.02
9,GCAGAGTA,-0.113
10,GAGATTGC,-0.0611
11,AGCGTAGC,-0.163
12,ATTGAAGG,-0.102
13,CCTGTGAC,0.043
14,AAGCTGAC,-0.0325
15,CCGGCATC,-0.0932
16,CAAACGGC,-0.103
17,AATTATGA,0.222
18,GCAGATAA,0.00589
19,CCAAGTCG,-0.182
20,ATCGTGCG,0.207
21,CGCCTAAG,-0.0898
22,TCCACAGA,0.124
23,GAACTCCA,-0.0434
24,CGAACTGA,-0.0637
25,CGGAGACG,-0.0526

row,Sequence,PBM E-score
1,CGCCACTA,-0.0513
2,TGCCCGCA,0.0267
3,CGAAGTCC,-0.195
4,ATATACGC,-0.133
5,GACCCTCA,-0.226
6,GTATAAGA,0.143
7,AATGCTGA,-0.0171
8,GCCGCTGA,-0.0934
9,GAGACAGC,0.178
10,CCCACCTC,-0.0532
11,AGCTTACG,-0.18
12,CGGGAAGA,0.237
13,ATGTTATC,0.175
14,ACAAACTG,-0.1
15,AGGCGAGG,-0.153
16,GGTGTCAC,0.105
17,ATACCGGG,-0.0462
18,CTACTGAC,-0.0892
19,AGTGCTGG,-0.104
20,GCCAGACA,-0.0517
21,ACCCGAGC,0.0747
22,TGTATCAA,0.392
23,AGAACTAT,-0.0642
24,GAGCTATA,-0.143
25,AGTTATCA,0.084

row,Sequence,PBM E-score
1,CGCCTCCG,-0.18
2,ATTCTCTG,-0.0795
3,ACCCCGCA,-0.0313
4,CCTGTTGA,-0.11
5,AGAGTACA,-0.126
6,AGACACCA,0.0225
7,GAGCGTTA,0.104
8,ATTGGCAC,-0.0475
9,CTACGGAC,-0.0813
10,GATACGGA,0.0438
11,TAAGATCA,0.172
12,GCAAGCCA,-0.0403
13,GAATATGC,0.00468
14,AGTTGTAT,0.165
15,ATTACGGG,0.0285
16,ATTCAAAT,0.136
17,CTCGCTAA,0.0158
18,AGATCGCT,-0.0191
19,TCGACCCA,-0.00739
